Here are results for one molecule from article doi:10.1101/2020.03.16.993600 (bioRxiv, 2020).

This assay has as its target T1, FLAG-FAM111B (purified recombinant) (human, UniProt Q6SJ93 1-734).
T1 sequence: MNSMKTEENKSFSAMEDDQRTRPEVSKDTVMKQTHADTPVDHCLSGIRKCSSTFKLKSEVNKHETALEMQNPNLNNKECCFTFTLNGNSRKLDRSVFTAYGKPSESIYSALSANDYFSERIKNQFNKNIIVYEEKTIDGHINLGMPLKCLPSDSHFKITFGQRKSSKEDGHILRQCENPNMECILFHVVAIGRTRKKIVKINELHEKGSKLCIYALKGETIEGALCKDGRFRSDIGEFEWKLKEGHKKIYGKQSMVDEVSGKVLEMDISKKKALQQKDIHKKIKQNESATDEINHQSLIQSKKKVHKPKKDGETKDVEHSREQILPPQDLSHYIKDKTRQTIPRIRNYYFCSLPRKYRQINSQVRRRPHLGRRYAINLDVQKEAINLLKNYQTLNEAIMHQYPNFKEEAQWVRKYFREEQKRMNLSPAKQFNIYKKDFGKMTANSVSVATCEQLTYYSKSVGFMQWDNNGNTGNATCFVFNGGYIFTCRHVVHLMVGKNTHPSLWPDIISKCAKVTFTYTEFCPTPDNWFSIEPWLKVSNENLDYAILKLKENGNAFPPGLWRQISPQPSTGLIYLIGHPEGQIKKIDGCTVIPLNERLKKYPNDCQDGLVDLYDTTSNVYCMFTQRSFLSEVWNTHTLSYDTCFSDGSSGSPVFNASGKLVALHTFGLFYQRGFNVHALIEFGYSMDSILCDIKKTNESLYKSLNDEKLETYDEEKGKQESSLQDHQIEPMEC
Put plainly: co-IP.

B1: FLAG-FAM111A (purified recombinant) (enzyme)
chain: MSCKKQRSRKHSVNEKCNMKIEHYFSPVSKEQQNNCSTSLMRMESRGDPRATTNTQAQRFHSPKKNPEDQTMPQNRTIYVTLKVNHRRNQDMKLKLTHSENSSLYMALNTLQAVRKEIETHQGQEMLVRGTEGIKEYINLGMPLSCFPEGGQVVITFSQSKSKQKEDNHIFGRQDKASTECVKFYIHAIGIGKCKRRIVKCGKLHKKGRKLCVYAFKGETIKDALCKDGRFLSFLENDDWKLIENNDTILESTQPVDELEGRYFQVEVEKRMVPSAAASQNPESEKRNTCVLREQIVAQYPSLKRESEKIIENFKKKMKVKNGETLFELHRTTFGKVTKNSSSIKVVKLLVRLSDSVGYLFWDSATTGYATCFVFKGLFILTCRHVIDSIVGDGIEPSKWATIIGQCVRVTFGYEELKDKETNYFFVEPWFEIHNEELDYAVLKLKENGQQVPMELYNGITPVPLSGLIHIIGHPYGEKKQIDACAVIPQGQRAKKCQERVQSKKAESPEYVHMYTQRSFQKIVHNPDVITYDTEFFFGASGSPVFDSKGSLVAMHAAGFAYTYQNETRSIIEFGSTMESILLDIKQRHKPWYEEVFVNQQDVEMMSDEDL
Regarding B1, the binding result was “binds”.
